Consider 43 molecules from publication PMC4336329 (PLoS ONE, 2015).

The structures appear in SMILES notation. Screen size: about 310,000 compounds; about 14,000 (4.5%) showed an effect of 50% or more. Effects have a minus sign here. The list shows a part of the results.
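Note: peak tail current of the secondary pulse compared with the same well before compound.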

The assay deals with human ether-à-go-go-related gene (hERG) potassium channel (human, UniProt Q12809). The assay is described as follows: primary screen, population patch clamp on CHO cells stably expressing hERG.
human ether-à-go-go-related gene (hERG) potassium channel, sequence (Q12809 whole entry, looked up): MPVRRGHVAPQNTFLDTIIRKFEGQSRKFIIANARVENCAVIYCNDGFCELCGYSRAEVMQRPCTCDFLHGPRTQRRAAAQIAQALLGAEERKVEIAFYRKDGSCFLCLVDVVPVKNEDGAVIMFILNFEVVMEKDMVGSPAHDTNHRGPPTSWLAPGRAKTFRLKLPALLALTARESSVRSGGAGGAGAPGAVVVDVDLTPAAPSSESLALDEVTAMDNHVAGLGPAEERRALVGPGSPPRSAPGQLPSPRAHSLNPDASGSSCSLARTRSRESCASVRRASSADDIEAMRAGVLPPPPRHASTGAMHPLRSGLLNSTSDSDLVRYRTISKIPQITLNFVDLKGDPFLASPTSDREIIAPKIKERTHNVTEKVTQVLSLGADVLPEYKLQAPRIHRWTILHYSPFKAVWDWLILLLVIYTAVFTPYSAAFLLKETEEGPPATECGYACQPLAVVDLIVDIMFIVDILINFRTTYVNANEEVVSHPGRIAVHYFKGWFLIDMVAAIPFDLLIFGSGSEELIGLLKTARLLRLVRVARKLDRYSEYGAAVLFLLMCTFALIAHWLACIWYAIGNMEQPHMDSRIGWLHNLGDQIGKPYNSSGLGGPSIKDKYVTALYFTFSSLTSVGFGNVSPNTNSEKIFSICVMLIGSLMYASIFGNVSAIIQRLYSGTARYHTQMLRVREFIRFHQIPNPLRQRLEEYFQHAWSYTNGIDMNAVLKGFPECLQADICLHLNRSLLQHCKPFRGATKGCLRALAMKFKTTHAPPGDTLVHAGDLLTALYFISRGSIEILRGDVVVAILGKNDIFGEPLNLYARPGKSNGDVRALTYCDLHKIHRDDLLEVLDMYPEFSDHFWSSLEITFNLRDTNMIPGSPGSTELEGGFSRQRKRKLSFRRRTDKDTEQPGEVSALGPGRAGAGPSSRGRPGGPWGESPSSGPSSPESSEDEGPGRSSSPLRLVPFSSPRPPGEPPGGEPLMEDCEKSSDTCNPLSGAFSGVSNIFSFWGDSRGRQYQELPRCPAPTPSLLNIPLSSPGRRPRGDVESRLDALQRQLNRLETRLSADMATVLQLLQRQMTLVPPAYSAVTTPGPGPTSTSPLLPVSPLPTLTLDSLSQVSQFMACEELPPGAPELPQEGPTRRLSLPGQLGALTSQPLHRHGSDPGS
Take `O=C(Cn1cncc1-c1ccc([N+](=O)[O-])cc1)Nc1ccccc1F`: the “hERG current change (%, negative = inhibition) at 10uM” value is reported as -12.6%. Next, `O=C(Cc1cccc2ccccc12)Nc1ccc(N2CCOCC2)cc1`: 15.3%.

As to `Cl.OC(CCN1CCCCC1)(c1ccccc1)C1CCCCC1` (stereo not shown), the “hERG current change (%, negative = inhibition) at 10uM” value is reported as -21.4%. For the molecule `CCOC(=O)c1sc2c(c1C)c(=O)n(Cc1ccccc1)c(=O)n2CCN(C)C`, the “hERG current change (%, negative = inhibition) at 10uM” value is -58.9%. With `CCOC(=O)c1c(N)sc(C(=O)OC)c1C` the figure was 10.7%; with `COc1ccccc1/C=N/NC1=NCCCCC1.Cl`, -13%. With `C/C(=N/NC(=O)c1ccc(C(C)(C)C)cc1)c1ccccn1` the figure was -10.1%.

Regarding `Oc1cc(-n2cccn2)c(O)cc1-n1cccn1`, the “hERG current change (%, negative = inhibition) at 10uM” value came out at 21%. Next, `CCCCCCCC(=O)OCC(=O)[C@@]1(O)CC[C@H]2[C@@H]3CCC4=CC(=O)CC[C@]4(C)[C@H]3[C@@H](O)C[C@@]21C`: 18.6%. With `CCOc1ccc(OCCC(=O)OCC(=O)Nc2ccc(C)c(S(=O)(=O)N3CCCCC3)c2)cc1` the figure was 5.34%; with `COc1ccc(-c2csc(Nc3ccc(S(=O)(=O)Nc4cc(C)on4)cc3)n2)cc1C`, 9.49%; with `CC(OC(=O)c1ccc(Cl)nc1)C(=O)N1CCc2ccccc21` (stereo not shown), -3.81%.

For the molecule `CCOc1cc(C2C(C(=O)OC(C)C)=C(C)NC3=C2C(=O)CCC3)cc([N+](=O)[O-])c1O` (stereo not shown), the “hERG current change (%, negative = inhibition) at 10uM” value was -6.02%. Next, `Cc1ccc2nc(N(CCN(C)C)C(=O)c3ccc4ccccc4c3)sc2c1.Cl`: 15.9%; `CCOC(=O)CC(NS(=O)(=O)Cc1ccccc1)c1ccc(C)cc1` (stereo not shown): -5.46%. For the molecule `CS(=O)(=O)Nc1ccc(C2=NN(C(=O)C3CCCCC3)C(c3cccs3)C2)cc1` (stereo not shown), the “hERG current change (%, negative = inhibition) at 10uM” value is -22.8%. Next, `O=S(=O)(Nc1ccc2nc(-c3ccco3)[nH]c2c1)c1ccccc1`: -58.4%; `O=C(NCCc1ccccc1)C1CC(c2ccccc2O)=NO1` (stereo not shown): -6.84%; `CCN1CCN(C(=O)C(N)Cc2ccccc2)CC1` (stereo not shown): 22%.

For `CN1CCN(c2ccc(NC(=O)C(C)(C)C)cc2)CC1`, the “hERG current change (%, negative = inhibition) at 10uM” value came to 11.8%. As for `O=C(COc1ccc2ccc(=O)oc2c1)Nc1cc([N+](=O)[O-])ccc1F`, the “hERG current change (%, negative = inhibition) at 10uM” value came to 3.77%. `CCOc1ccc(NC(=O)[C@H](C)NC(=O)C2CC(=O)N(c3ccc(OC)cc3)C2)cc1` (stereo partly shown): the “hERG current change (%, negative = inhibition) at 10uM” value came out at 27.7%. Regarding `CN(C)CCNC(=O)Cn1c(=O)c2cccn2c2ccc(F)cc21`, the “hERG current change (%, negative = inhibition) at 10uM” value was 5.12%. With `CCSc1nc(N)c(NC(=O)c2ccc(Br)o2)c(=O)[nH]1` the figure was 11.5%; with `Cc1ccc2nc(COc3ccc(N(C)S(=O)(=O)c4ccccc4)cc3)cc(=O)n2c1`, -56%. Next, `Cc1nn(-c2ccccc2)c2nc(-c3ccco3)cc(C(=O)O)c12`: 1.8%; `Cc1cccc(C)c1NC(=O)N1CCC(n2cnc3ccccc32)CC1`: 8.94%.

In the case of `COc1ccc(N2CCN(S(=O)(=O)CCNC(=O)c3cccs3)CC2)cc1`, the “hERG current change (%, negative = inhibition) at 10uM” value was found to be 9.82%. With `O=C(NC(=S)Nc1nc2c(ccc3ccccc32)s1)c1cccs1` the figure was 21.6%. With `Cc1ccc2cc(CN(c3ccccc3C)S(=O)(=O)c3ccccc3)c(=O)[nH]c2c1`, the “hERG current change (%, negative = inhibition) at 10uM” value is listed as 1.8%. With `CC(NC(=O)CCC(=O)c1cccs1)c1ccccc1` (stereo not shown) the figure was 11.7%. Take `O=C(CSc1nnc(NC(=O)c2ccc(S(=O)(=O)N3CCOCC3)cc2)s1)Nc1ccccc1C(F)(F)F`: the “hERG current change (%, negative = inhibition) at 10uM” value turned out to be 16.1%. With `COc1ccc(C(=O)N(Cc2ccccc2)Cc2cc3cc4c(cc3[nH]c2=O)OCCO4)cc1` the figure was -6.4%; with `Fc1ccc(C2NCCc3[nH]cnc32)cc1` (stereo not shown), 17.4%. With `Cn1c(N)c(C(=O)CSc2nnc(C3CC3)n2-c2ccccc2)c(=O)n(C)c1=O` the figure was 1.51%; with `CC1CN(C(=O)Nc2cccc(Cl)c2)C2(CCCCCC2)O1` (stereo not shown), 6.75%. Next, `C#CCOCCOCCOCCNc1nc(N2CCN(C(=O)[C@H]([C@@H](C)CC)n3cc([C@@H](N)Cc4ccc(O)cc4)nn3)CC2)nc(N2CCN(C(=O)[C@H]([C@@H](C)CC)n3cc([C@@H](N)CC(C)C)nn3)CC2)n1.Cl`: 0.378%; `CCOc1ccc(OCC)c(-c2c(=O)n(OCc3ccc(C(C)(C)C)cc3)c3ccccc3[n+]2[O-])c1`: 21.3%; `Cc1ccc2nc(C3CCCN(C(=O)NCc4ccccc4)C3)[nH]c2c1` (stereo not shown): -33.8%. For the molecule `O=C(N/N=C/c1cccnc1)c1cc(-c2ccc(Br)cc2)nc2ccccc12`, the “hERG current change (%, negative = inhibition) at 10uM” value turned out to be 3.47%.

Turning to `CCC(=O)NC(C)C(c1cccs1)N1CCOCC1` (stereo not shown), the “hERG current change (%, negative = inhibition) at 10uM” value is reported as 2.49%. With `CC(=O)CC(=O)NC(=NC1CCCCC1)Nc1nc(C)cc(C)n1` the figure was 7.01%; with `Cc1nc2ccccc2c2ncccc12`, -5.7%.
